Data taken from patent publication US20140171510A1, “HO[…] AND/OR CONJUGATES OF AMPHETAMINE AND OTHER […] PROCESSES FOR MAKING AND USING THE SAME” (priority 2011, published 2014).

Test: In vitro hydrolysis of the amide linkage (chemical stability)

## l-homoarginine-d-amphetamine [hArg-Amp]
  chemical stability to in vitro hydrolysis of the amide linkage: chemically stable
